# Measurements taken from PubChem BioAssay (EPA / NIEHS).
# For some of these results: The hits were mostly taken out for another list; the other results follow. Records with an inconclusive call do not appear. Only a part is listed here, and it is no random draw. A structure can be active in one record and inactive in another. The source made the active and inactive calls. The calls were made as follows, unless noted: active = hit-call score of the fitted dose curve at least 0.9, where 1 is the maximum; inconclusive = response in the unintended direction; inactive = score below 0.9.
# Columns and labels:
# [1] = molecular target: Retinoic acid receptor RXR-alpha (Homo sapiens) (UniProt P19793); test: ATG_RXRa_TRANS: Attagene TRANS-FACTORIAL HepG2 Assay for human Retinoid X Receptor alpha (RXRa) (AID 2283012)
# Method in brief: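 Cells (HepG2) carried transiently transfected GAL4-responsive reporter units. Following a 24 h chemical incubation, reporter mRNA induction was read via RT-PCR fragment analysis; DMSO served as negative control and baseline.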
# [2] = molecular target: human Retinoid X Receptor beta (RXRb), RXRB (gene 6257) (UniProt P28702); test: ATG_RXRb_TRANS: Attagene TRANS-FACTORIAL HepG2 Assay for human Retinoid X Receptor beta (RXRb) (AID 2283013)
# Method in brief: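 Multiplexed TRANS reporter assay in HepG2; 24 h dosing; reporter mRNA by RT-PCR/CE fluorescence; gain-of-signal relative to DMSO.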
# [3] = read-out: Interleukin-1 alpha (IL1a), IL1A (gene 3552); test: BSK_KF3CT_IL1a: BioMAP Diversity Plus: KF3CT Assay for Interleukin-1 alpha (IL1a) Biomarker Activity (AID 2283070; active = hit-call score of the fitted dose curve at least 0.9, where 1 is the maximum; inactive = score below 0.9); details: actives raise or lower the signal; primary human keratinocytes with fibroblasts
# Method in brief: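 Primary human keratinocyte plus foreskin fibroblast co-culture, dosed and measured at 24 h in 96-well plates. IL-1a level quantified by ELISA; bidirectional fit relative to DMSO.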
# [4] = molecular target: Estrogen receptor (Homo sapiens) (UniProt P03372); test: OT_ERa_GFPERaERE_0120: Odyssey Thera (OT) 2-hour HeLa Transcription Induction Assay for Estrogen Receptor (AID 2283382)
# Method in brief: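 Measures ESR1 pathway reporter gain-of-signal in HeLa cells after a 2-hour treatment, detected as fluorescent protein induction by microscopy, DMSO as baseline.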
# [5] = molecular target: Bile acid receptor (Homo sapiens) (UniProt Q96RI1); test: OT_FXR_FXRSRC1_0480: Odyssey Thera (OT) 8-hour HEK293T Protein-Complementation Assay for Farnesoid X receptor/SRC-1 Co-activator (AID 2283383)
# Method in brief: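 Co-activator recruitment to FXR was measured in living HEK293T cells, where interaction of the two fused partners restored an active fluorescent reporter. Signal gain after 8 h treatment was referenced to DMSO.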
# [6] = CEETOX_H295R_ESTRADIOL: CeeTox H295R High-throughput Steroidogenesis Assay for Estradiol (AID 2283440; active = hit-call score of the fitted dose curve at least 0.9, where 1 is the maximum; inactive = score below 0.9;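 also: estradiol secreted into medium quantified by LC-MS/MS after dansyl derivatisation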); details: actives raise or lower the signal
# Method in brief: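 H295R adrenocortical cells were prestimulated with 10 uM forskolin for 48 h, then exposed to test chemical in 0.1% DMSO for 48 h. Medium estradiol was extracted with MTBE, dansyl-derivatized and quantified by HPLC-MS/MS; bidirectional fit versus DMSO.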
# [7] = CEETOX_H295R_PROG: CeeTox H295R High-throughput Steroidogenesis Assay for Progesterone (PROG) (AID 2283442; active = hit-call score of the fitted dose curve at least 0.9, where 1 is the maximum; inactive = score below 0.9;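 also: human H295R adrenal cells primed with 10 µM forskolin before dosing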); details: actives raise or lower the signal
# Method in brief: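 H295R human adrenal cells were prestimulated with 10 uM forskolin for 48 h, then exposed to test chemical (0.1% DMSO final) for 48 h. Medium progesterone was MTBE-extracted and quantified by HPLC-MS/MS, with bidirectional fitting against DMSO.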
# [8] = read-out: DNA damage-inducible transcript 3 (DDIT3), DDIT3 (gene 1649); test: LTEA_HepaRG_DDIT3: Life Technologies and Expression Analysis (LTEA) Assay for DNA damage-inducible transcript 3 (DDIT3) using HepaRG (AID 2283488; active = hit-call score of the fitted dose curve at least 0.9, where 1 is the maximum; inactive = score below 0.9); details: actives raise or lower the signal; mRNA level, 48 h
# Method in brief: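 Changes in DDIT3 transcript, in either direction relative to 0.5% DMSO vehicle, were quantified by TaqMan qRT-PCR after 48 h chemical exposure of HepaRG cells at 8 concentrations, maximum 100 uM.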
# [9] = TOX21_p53_BLA_p3_viability: Viability Assessment in the Tox21 HCT-116 p53 Agonism Beta-lactamase Assay, Phase 3 (AID 2283593);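 also: cells exposed to compound for 16 h before reading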
# Method in brief: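 HCT116 cells, 4000/well, dosed 5 h after plating by pin transfer (217-fold dilution from DMSO stock) and incubated 16 h at 37C, 5% CO2. Viability read as ATP luminescence with CellTiter-Glo after 30 min at room temperature.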
# [10] = Tanguay_ZF_120hpf_PFIN_legacy: (Legacy) Oregon State University Tanguay Lab 120 Hour Post-fertilization zebrafish Assay for Pectoral Fin Malformation (AID 2283648);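 also: each larva judged yes or no for fin defect by brightfield with dead larvae skipped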
# Method in brief: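 Dechorionated Tropical 5D wild-type zebrafish embryos, one per well, statically exposed from 6 to 120 hpf at 28C with 0.64% DMSO final. Pectoral fin malformation scored present/absent by brightfield at 120 hpf; not scored in dead embryos.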
# [11] = CCTE_Simmons_MITO_inhib_resp_rate: CCTE's HepG2 Seahorse XF Respirometric Screening Assay at Inhibited Respiratory State [full ETC block], Simmons Lab (AID 2284006; active = hit-call score of the fitted dose curve at least 0.9, where 1 is the maximum; inactive = score below 0.9); details: actives raise or lower the signal
# Method in brief: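 Inhibited respiration was taken as HepG2 oxygen consumption after rotenone/antimycin A, which followed test-compound and FCCP injections. Chemicals were tested at seven final concentrations from 125 nM to 100 uM. Activity was fitted bidirectionally relative to DMSO.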
# [12] = molecular target: human RAR-related Orphan Receptor gamma (RORg), RORC (gene 6097) (UniProt P51449); test: ATG_RORg_TRANS: Attagene TRANS-FACTORIAL HepG2 Assay for human RAR-related Orphan Receptor gamma (RORg) (AID 2283011)
# Method in brief: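 Readout: reporter transcript induction (RT-PCR, fluorescent primer extension, capillary electrophoresis) after 24 h compound exposure of transiently transfected HepG2 cells carrying a RORg-Gal4 chimera and GAL4-UAS reporters; DMSO served as baseline, with increasing signal fitted.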
# [13] = read-out: Matrix Metallopeptidase 1 (MMP1), MMP1 (gene 4312); test: BSK_hDFCGF_MMP1: BioMAP Diversity Plus: hDFCGF Assay for Matrix Metallopeptidase 1 (MMP1) Biomarker Activity (AID 2283064; active = hit-call score of the fitted dose curve at least 0.9, where 1 is the maximum; inactive = score below 0.9); details: actives raise or lower the signal; primary human foreskin fibroblasts
# Method in brief: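 Primary human foreskin fibroblasts exposed to chemicals for 24 h; MMP1 measured by ELISA. Cytotoxicity tracked by SRB staining in parallel cultures; bidirectional fit relative to DMSO.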
# [14] = molecular target: Cellular tumor antigen p53 (Homo sapiens) (UniProt P04637); test: TOX21_p53_BLA_p3_ratio: Tox21 HCT-116 p53 Agonism Beta-lactamase Assay, Ratio, Phase 3 (AID 2283596)
# Method in brief: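 HCT116 p53-bla cells (4000/well) given compound in DMSO (217-fold dilution) after 5 h, incubated 16 h at 37C. CCF4-AM substrate 2 h at room temperature; 460/530 nm emission ratio, gain fitted against DMSO.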
# [15] = molecular target: Estrogen receptor (Homo sapiens) (UniProt P03372); test: CCTE_Deisenroth_AIME_384WELL_LUC_Shift: CCTE's 384-well Estrogen Receptor Transactivation Assay with AIME metabolic competence data shift (ERTA luciferase; difference in metabolism positive and negative), Deisenroth Lab (AID 2284041; active = hit-call score of the fitted dose curve at least 0.9, where 1 is the maximum; inactive = score below 0.9;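 also: shift is response with S9 minus without S9 so positive means metabolism raised ER signal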)
# Method in brief: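 Chemicals (0.002–200 uM, 10 points) pre-incubated 2 h with alginate-encapsulated induced male Sprague Dawley rat liver S9 or S9-free, then medium applied 24 h to VM7Luc4E2 cells; luciferase. Endpoint is per-concentration difference, S9-positive minus negative.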
# [16] = molecular target: human Retinoic Acid Receptor gamma (RARg), RARG (gene 5916) (UniProt P13631); test: ATG_RARg_TRANS: Attagene TRANS-FACTORIAL HepG2 Assay for human Retinoic Acid Receptor gamma (RARg) (AID 2283009)
# Method in brief: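 HepG2, RARg-GAL4 TRANS system, 24 h exposure; reporter mRNA by RT-PCR + CE fluorescence; increase over DMSO.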
# [17] = ACEA_AR_agonist_AUC_viability: ACEA Biosciences xCELLigence Real-Time Cell Analysis on Androgen Receptor Agonism for Viability (AID 2283775)
# Method in brief: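 Read-out is area under the impedance curve at 80 h post-dose in 22Rv1 cells, with DMSO as baseline and signal loss taken as reduced viability. Compounds ran in duplicate from 100 uM final.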
# [18] = molecular target: Nuclear receptor subfamily 1 group I member 2 (Homo sapiens) (UniProt O75469); test: ATG_PXR_TRANS: Attagene TRANS-FACTORIAL HepG2 Assay for human Pregnane X Receptor (PXR) (AID 2283008)
# Method in brief: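 Measures mRNA induction of a GAL4-UAS-driven reporter in human HepG2 cells transiently expressing PXR fused to Gal4, following 24 h treatment. DMSO served as negative control and baseline.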
# UniProt P28702, sequence (P28702 whole entry, looked up): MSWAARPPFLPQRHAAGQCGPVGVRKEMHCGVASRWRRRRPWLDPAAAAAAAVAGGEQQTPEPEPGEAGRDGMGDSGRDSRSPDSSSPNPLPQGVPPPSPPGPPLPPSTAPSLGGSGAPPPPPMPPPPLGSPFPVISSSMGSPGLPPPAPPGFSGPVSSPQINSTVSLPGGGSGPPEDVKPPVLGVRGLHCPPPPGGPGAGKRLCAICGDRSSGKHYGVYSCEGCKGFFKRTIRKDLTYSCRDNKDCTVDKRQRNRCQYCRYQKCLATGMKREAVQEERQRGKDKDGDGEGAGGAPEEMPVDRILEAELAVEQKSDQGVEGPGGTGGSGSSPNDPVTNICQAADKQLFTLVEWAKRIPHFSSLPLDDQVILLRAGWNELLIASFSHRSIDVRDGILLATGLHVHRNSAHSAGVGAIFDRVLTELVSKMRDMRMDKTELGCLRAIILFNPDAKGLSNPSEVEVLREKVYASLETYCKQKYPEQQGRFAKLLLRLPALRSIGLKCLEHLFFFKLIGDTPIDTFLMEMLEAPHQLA
# UniProt P03372, sequence (P03372 whole entry, looked up): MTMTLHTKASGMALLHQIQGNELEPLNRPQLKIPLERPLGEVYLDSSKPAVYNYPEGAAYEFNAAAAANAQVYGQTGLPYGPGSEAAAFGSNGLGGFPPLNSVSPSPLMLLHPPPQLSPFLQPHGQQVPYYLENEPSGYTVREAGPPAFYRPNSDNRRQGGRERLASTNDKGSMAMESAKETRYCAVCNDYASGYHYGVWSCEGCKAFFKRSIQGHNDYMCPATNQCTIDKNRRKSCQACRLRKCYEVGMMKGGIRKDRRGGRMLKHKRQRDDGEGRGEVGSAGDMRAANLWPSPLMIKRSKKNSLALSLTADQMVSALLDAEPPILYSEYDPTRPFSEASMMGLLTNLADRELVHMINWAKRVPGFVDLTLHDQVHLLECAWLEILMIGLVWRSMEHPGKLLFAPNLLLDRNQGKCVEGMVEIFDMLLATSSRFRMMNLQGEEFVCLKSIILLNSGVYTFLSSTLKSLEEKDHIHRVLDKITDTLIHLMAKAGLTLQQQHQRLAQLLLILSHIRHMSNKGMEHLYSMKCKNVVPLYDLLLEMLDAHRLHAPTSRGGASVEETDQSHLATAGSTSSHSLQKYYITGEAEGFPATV
# UniProt P04637, sequence (P04637 whole entry, looked up): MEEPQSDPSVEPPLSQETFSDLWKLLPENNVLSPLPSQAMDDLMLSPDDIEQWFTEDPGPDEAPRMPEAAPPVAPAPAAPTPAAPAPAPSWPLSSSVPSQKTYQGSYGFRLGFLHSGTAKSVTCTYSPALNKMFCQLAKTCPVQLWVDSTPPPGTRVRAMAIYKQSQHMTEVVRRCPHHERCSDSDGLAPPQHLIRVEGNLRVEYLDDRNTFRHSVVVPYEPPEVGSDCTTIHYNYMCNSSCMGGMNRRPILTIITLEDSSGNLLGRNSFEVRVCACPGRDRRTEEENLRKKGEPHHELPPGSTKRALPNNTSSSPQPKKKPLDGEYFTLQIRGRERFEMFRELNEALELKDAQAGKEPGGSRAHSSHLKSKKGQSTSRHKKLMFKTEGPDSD
# human Retinoic Acid Receptor gamma (RARg), RARG (gene 5916), sequence (P13631 whole entry, looked up, the tested form may be a part): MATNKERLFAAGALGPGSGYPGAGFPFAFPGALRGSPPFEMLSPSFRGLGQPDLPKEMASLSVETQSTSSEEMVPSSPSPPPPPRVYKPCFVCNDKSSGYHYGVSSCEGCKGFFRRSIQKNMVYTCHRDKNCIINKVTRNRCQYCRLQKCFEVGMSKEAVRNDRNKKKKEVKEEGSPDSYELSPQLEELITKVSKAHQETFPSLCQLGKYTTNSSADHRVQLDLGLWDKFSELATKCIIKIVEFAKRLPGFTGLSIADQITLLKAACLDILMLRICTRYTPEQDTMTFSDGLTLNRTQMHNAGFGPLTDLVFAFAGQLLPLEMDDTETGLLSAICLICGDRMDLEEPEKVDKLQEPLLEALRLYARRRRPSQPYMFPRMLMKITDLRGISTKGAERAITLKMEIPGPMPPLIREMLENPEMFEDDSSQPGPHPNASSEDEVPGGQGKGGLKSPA
# UniProt P51449, sequence (P51449 whole entry, looked up, the tested form may be a part): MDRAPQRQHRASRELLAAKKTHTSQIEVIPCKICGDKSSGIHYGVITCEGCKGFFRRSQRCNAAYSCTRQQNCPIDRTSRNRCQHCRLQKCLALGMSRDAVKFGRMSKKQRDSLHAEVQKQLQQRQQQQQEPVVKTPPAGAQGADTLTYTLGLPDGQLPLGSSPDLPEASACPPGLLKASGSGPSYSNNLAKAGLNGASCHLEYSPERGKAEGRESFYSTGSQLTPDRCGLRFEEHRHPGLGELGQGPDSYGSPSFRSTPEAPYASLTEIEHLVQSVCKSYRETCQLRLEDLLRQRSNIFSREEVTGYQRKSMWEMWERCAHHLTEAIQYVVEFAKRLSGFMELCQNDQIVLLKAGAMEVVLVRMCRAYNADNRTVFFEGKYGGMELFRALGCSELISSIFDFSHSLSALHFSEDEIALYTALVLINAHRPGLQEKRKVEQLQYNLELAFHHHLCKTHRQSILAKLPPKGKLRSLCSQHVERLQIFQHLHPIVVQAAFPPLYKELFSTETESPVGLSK
# UniProt O75469, sequence (O75469 whole entry, looked up, the tested form may be a part): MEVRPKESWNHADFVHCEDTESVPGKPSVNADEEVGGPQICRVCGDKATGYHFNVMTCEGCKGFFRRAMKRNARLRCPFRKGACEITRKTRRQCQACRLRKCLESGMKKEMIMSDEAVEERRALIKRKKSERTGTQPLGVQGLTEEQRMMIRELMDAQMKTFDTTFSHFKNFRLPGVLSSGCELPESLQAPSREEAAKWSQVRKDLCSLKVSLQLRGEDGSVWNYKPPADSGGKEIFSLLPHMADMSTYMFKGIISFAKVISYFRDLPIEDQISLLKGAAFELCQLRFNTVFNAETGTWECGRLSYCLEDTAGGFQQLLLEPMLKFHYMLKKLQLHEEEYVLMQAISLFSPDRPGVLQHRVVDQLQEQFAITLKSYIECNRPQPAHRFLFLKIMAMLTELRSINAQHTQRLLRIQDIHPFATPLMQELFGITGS
# UniProt Q96RI1, sequence (Q96RI1 whole entry, looked up, the tested form may be a part): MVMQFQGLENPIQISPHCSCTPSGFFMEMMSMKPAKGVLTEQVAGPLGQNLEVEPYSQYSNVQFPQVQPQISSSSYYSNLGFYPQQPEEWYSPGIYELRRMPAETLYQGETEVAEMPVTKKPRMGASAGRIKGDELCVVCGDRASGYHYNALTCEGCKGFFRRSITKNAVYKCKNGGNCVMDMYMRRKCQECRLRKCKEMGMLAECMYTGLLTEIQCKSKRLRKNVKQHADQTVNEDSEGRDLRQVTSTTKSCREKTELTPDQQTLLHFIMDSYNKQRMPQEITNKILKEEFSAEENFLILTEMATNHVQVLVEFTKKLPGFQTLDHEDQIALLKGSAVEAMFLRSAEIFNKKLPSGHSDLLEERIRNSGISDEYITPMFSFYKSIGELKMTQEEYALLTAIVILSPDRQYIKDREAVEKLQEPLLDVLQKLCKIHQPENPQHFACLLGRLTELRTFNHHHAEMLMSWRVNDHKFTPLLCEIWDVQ
# UniProt P19793, sequence (P19793 whole entry, looked up, the tested form may be a part): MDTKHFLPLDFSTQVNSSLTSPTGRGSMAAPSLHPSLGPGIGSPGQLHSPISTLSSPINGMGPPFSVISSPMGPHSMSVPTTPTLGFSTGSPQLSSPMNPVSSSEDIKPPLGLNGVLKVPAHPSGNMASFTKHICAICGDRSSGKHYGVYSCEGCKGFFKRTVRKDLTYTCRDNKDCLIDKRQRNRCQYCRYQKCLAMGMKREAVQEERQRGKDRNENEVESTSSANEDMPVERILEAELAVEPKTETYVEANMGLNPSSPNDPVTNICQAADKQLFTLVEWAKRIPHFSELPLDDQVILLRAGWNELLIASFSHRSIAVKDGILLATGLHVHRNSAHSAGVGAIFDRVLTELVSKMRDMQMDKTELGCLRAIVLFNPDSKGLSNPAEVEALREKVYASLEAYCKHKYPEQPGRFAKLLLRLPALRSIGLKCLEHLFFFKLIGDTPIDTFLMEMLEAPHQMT
smiles,measurement,setting,value
C[C@]12C[C@H](O)[C@H]3[C@@H](CCC4=CC(=O)CC[C@@]43C)[C@@H]1CC[C@@H]2C(=O)CO,outcome,[1],inactive
same,outcome,[2],inactive
same,outcome,[3],inactive
same,outcome,[4],inactive
same,outcome,[5],inactive
same,outcome,[6],inactive
same,AC50,[7],active: 50 µM
same,outcome,[8],inactive
same,outcome,[9],inactive
same,outcome,[10],inactive
same,outcome,[11],inactive
O=c1n(CC2CO2)c(=O)n(CC2CO2)c(=O)n1CC1CO1 (centres undefined),outcome,[12],inactive
same,AC50,[13],active: 30.9 µM
same,AC50,[14],active: 6.14 µM
same,outcome,[15],inactive
Nc1ccc2cc(S(=O)(=O)O)cc(O)c2c1N=Nc1ccccc1C(F)(F)F,outcome,[16],inactive
same,outcome,[17],inactive
CCC(C)NC(N)=O (centres undefined),outcome,[18],inactive
CCCCCCCCCCCC(=O)O,AC50,[2],active: 58.4 µM
